Measured values from article PMC4336329 (PLoS ONE, 2015).
Hit rate of the full screen: of about 310,000 compounds, about 14,000 (4.5%) showed an effect of 50% or more. The effect is printed as a negative number. The list shows a part of the results.

Each compound was assayed against human ether-à-go-go-related gene (hERG) potassium channel (human, UniProt Q12809) (assay: primary screen, population patch clamp on CHO cells stably expressing hERG).
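Also: peak tail current of the secondary pulse compared with the same well before compound.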

human ether-à-go-go-related gene (hERG) potassium channel, sequence (Q12809 whole entry, looked up): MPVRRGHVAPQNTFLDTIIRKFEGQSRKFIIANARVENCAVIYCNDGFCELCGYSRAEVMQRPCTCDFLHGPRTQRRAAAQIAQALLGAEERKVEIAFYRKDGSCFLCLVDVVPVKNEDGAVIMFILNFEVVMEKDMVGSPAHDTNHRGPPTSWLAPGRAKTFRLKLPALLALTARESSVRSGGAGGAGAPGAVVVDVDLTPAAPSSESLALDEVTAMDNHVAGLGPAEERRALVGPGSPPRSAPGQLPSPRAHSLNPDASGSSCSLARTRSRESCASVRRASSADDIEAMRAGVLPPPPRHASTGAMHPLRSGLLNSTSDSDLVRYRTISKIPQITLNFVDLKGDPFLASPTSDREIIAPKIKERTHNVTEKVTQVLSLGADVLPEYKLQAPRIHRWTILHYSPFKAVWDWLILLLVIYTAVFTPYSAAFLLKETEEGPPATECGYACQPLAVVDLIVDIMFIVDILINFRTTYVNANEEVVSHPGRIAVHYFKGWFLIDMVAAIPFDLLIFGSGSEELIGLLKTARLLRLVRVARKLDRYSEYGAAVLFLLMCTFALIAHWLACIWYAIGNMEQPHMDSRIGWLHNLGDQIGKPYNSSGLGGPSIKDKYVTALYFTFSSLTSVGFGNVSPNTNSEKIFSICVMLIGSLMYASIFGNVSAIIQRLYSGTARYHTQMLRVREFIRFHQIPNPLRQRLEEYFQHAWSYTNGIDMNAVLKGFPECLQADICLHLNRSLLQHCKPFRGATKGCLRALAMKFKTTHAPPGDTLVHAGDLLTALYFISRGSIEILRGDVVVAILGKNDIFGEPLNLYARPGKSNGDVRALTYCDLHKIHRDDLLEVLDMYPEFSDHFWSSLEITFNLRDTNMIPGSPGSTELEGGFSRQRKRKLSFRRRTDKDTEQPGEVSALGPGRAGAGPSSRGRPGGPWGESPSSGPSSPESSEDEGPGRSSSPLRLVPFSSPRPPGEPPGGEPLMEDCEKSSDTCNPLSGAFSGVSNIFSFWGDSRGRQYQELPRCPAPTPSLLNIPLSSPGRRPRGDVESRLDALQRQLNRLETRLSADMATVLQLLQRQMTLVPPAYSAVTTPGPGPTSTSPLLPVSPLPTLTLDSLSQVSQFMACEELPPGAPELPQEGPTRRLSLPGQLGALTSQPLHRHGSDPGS

Structure (SMILES) | hERG current change (%, negative = inhibition) at 10uM [%]
O=C(NCCc1ccc(F)cc1)C1CCCCC1 | 12.1
Cc1c(NC(=O)c2cc3c(=O)n4ccccc4nc3s2)c(=O)n(-c2ccccc2)n1C | 8.11
Cc1cccc(CNc2ncnc3ccc(-c4ccccc4Cl)cc23)c1 | 2.9
Nc1c(Cl)cc(C2=NCCn3c2c2ccc(C(F)(F)F)cc2[n+]3[O-])cc1Cl | -26.1
O=C(NC1CCN(Cc2ccccc2)CC1)c1cc(Br)c(Br)[nH]1 | -2.75
Cc1oc(-c2ccccc2)nc1C(=O)OCC(=O)NCc1ccccc1 | -23.9
Fc1ccc(CCN2CCN=C2Nc2ccccc2)cc1 | -43.2
Cc1ccc(-n2cnc(=O)c3cccnc32)cc1 | 1.62
O=C(Nc1nc2ccccc2[nH]1)C12CC3CC(CC(C3)C1)C2 | 14.4
Cc1cc(OC(=O)N2CCOCC2)cc(C)c1Cl | 1.27
Cc1cc(Cl)ccc1OCC(=O)N/N=C/c1ccc(OC2OC(CO)C(O)C(O)C2O)cc1 (stereo not drawn) | -1.22
CCN(CC(=O)Nc1c(F)cccc1F)C(=O)C1CCCN(C(=O)c2ccc(Cl)cc2)C1 (stereo not drawn) | -31.5
Cc1c(C(=O)N2CCCC2)oc2c1-c1[nH]ncc1CC2 | 4.93
CCCc1ccc(OCc2ccc(C(=O)Nc3cccc(C)n3)o2)c(OC)c1 | 16.4
CCOC(=O)c1ccc(NC(=O)N2CCN(Cc3ccccc3)CC2)cc1 | -11.1
CC(=O)CNc1ccc(S(=O)(=O)N/N=C/c2ccccc2)cc1 | 16.1
O=C1OCC2=C1C(c1ccccc1)CC(=O)N2c1ccc(F)cc1 (stereo not drawn) | -7.86
O=c1cc(-c2ccccc2[N+](=O)[O-])oc2ccccc12 | -3.39
C=CCOn1c(=O)c(-c2ccc(OC)cc2)[n+]([O-])c2ccccc21 | -5.17
O=C(OCc1nc2ccccc2[n+]([O-])c1C(=O)c1ccccc1)c1cccs1 | 8.02
CCOc1ccccc1NC(=O)c1nc(S(=O)(=O)Cc2cccc(C)c2)ncc1Cl | 1.74
Cc1nc(C(=O)NNC(=O)Nc2ccccc2)cs1 | 11.4
Fc1ccccc1Cc1noc(CN2CCC(OCc3cccnc3)CC2)n1 | -14.5

Structure (SMILES) | hERG current change (%, negative = inhibition) at 10uM [%]
Cc1cc(C)c(C#N)c(N2CCN(S(=O)(=O)Cc3ccccc3)CC2)n1 | 16.7
O=C(CC(NS(=O)(=O)c1ccc(Cl)cc1)c1ccco1)NCc1ccco1 (stereo not drawn) | -10.6
O=C(CSc1cccc2cccnc12)Nc1ccc(S(=O)(=O)N2CCOCC2)cc1 | -8.8
CN1CCN(C(=O)c2ccc(CS(=O)(=O)c3c(Cl)cccc3Cl)o2)CC1 | -5.15
COC(=O)c1cc(OC)c(OC)c(OC)c1[N+](=O)[O-] | -23.2
COc1ccccc1NS(=O)(=O)c1cccs1 | -11.2
Cc1ccccc1-c1cc(C(=O)Nc2sc(C(=O)OC(C)C)c(C)c2C#N)c2ccccc2n1 | 16.7
COc1ccc(CCNC(=O)C2CCN(S(=O)(=O)c3ccc(-n4cnnn4)cc3)CC2)cc1OC | -13
COc1ccc(/C=N/N=C2/NC(=O)CC(C(=O)O)S2)cc1 (stereo not drawn) | 11.7
CC1CCN(c2c([N+](=O)[O-])c(=O)oc3ccccc23)CC1 | -12.5
CN(Cc1ccncn1)C(=O)C1CCC(=O)N(Cc2cccc(C(F)(F)F)c2)C1 (stereo not drawn) | -5.2
O=C(C1CCN(S(=O)(=O)c2cccc3nsnc23)CC1)N1CC=C(c2ccccc2)CC1 | -25.7
O=C(Cc1c(Cl)cccc1Cl)NC1=NCCS1 | 11.2
CCc1ccc(Cn2nnc(C(=O)Nc3ccc(OC)cc3OC)c2N)cc1 | 12.8
Cc1ccc(OC(C)c2nnc(N)s2)cc1Cl (stereo not drawn) | -2.12
CCOC(=O)c1sc(-c2ccc(C)cc2)c(C#N)c1C | 8.61
CCc1nc(NC(C)C)c2oc3ccccc3c2n1.Cl | -6.89
CCOC(=O)C1CCCN(C(=O)CSc2nc(C)cc(C)n2)C1 (stereo not drawn) | 23.2
O=C(CCN1CCN(C/C=C/c2ccccc2)CC1)Nc1cccc(F)c1 | -77.9
Cc1ccc(CNC(=O)C(CC(C)C)OC(=O)c2ccco2)cc1 (stereo not drawn) | -6.6
O=S(=O)(Nc1ccc2c(c1)OCCO2)c1cccc2cccnc12 | -26.1
O=C(CSc1nc(=O)n(CCCN2CCOCC2)c2c1CCCC2)Nc1ccc(Cl)cc1 | -77.7
CCCC(C)C(=O)NCc1ccccc1OC (stereo not drawn) | 20.7

Structure (SMILES) | hERG current change (%, negative = inhibition) at 10uM [%]
O=C(CCCSc1nnc(Nc2ccccc2F)s1)N1CCOCC1 | -2.97
COc1cc(/C(C#N)=C/c2ccccc2)c([N+](=O)[O-])cc1OC | -1.12
C(=N\N=C\c1cccnc1)/c1cccnc1 | -3.48
CN(C)C(CNC(=S)Nc1ccc(F)cc1)c1cccnc1 (stereo not drawn) | 4.11
O=C1C=C(c2cccc(OCc3ccccc3)c2)C[C@@H](c2ccc3c(c2)OCO3)C1 | 2.18
Cc1c(N)cccc1-n1cnnn1 | 13.9
COc1ccc(C(CC(=O)N2CCN(c3ccccc3)CC2)c2c(O)cc(OC)cc2OC)cc1 (stereo not drawn) | 9.99
COc1ccccc1NC(=O)CSc1nnc2ccc(-c3cccnc3)nn12 | -41.6
Cc1nc(N)c(C#N)c(-c2ccccc2Cl)c1C | -0.265
CCCCOc1ccccc1C(=O)NNC(=S)NC(=O)c1ccccc1[N+](=O)[O-] | 3.48
CN(CC(=O)NCc1cccnc1)S(=O)(=O)c1ccc2c(c1)c(=O)n(C)c(=O)n2C | 31.5
O=C(Nc1cccc2cccnc12)c1ccc(Cl)cc1 | 6.29
CCC/C(O)=C1\C(=O)CC(c2ccccc2)CC1=NCCc1c(C)[nH]c2ccccc12 (stereo not drawn) | -39.3
CCCCC(NC(C)=O)c1nc2ccccc2[nH]1 (stereo not drawn) | 23.1
N#Cc1ccc(COC(=O)c2cccnc2Cl)cc1 | -46.1
Cc1cc(C(=O)Nn2cnnc2)cs1 | 10.2
COC(=NC(C)C)NC(C)C | 22.2
Cc1cccc(C(=O)N2CCN(C(=O)c3cccc(C)c3)C(C)C2)c1 (stereo not drawn) | 6.45
Cn1c(Cl)c(/C=N/OC(=O)C2CC2)c2ccccc21 | 11.8
COC(=O)CN(c1c(C)cccc1C)S(C)(=O)=O | 9.13
COC(=O)c1nccc2c1[nH]c1ccccc12 | 9.72
CC(C)(C#N)Nc1ccccc1 | 7.22
O=C(NCC1CCCC(CNC(=O)Nc2ccc(Cl)cn2)C1)Nc1ccc(Cl)cn1 (stereo not drawn) | 4.19

Structure (SMILES) | hERG current change (%, negative = inhibition) at 10uM [%]
COc1ccc2c(c1)CCc1c(C(=O)Nc3cc(C)n(Cc4ccc(Cl)cc4)n3)noc1-2 | -30.5
O=C1CCCC2=C1Sc1ccc(Cl)cc1N2 | 11.6
O=C(COC(=O)COc1ccc(Cl)cc1Br)NC1CCCCCC1 | 5.9
CC1(C)C2CCC1(C)C1(C2)NC(=O)c2ccccc2O1 (stereo not drawn) | 4.25
Cc1cc(Cl)c(OCCCNCc2ccccc2)c(Br)c1.O=C(O)C(=O)O | -51.8
CCOC(=O)C1C(=O)CC(C)(O)C(C(=O)OCC)C1c1ccc(OC)cc1 (stereo not drawn) | -4.15
COc1cc(NC(=O)COC(=O)/C=C/c2ccc(Cl)cc2Cl)cc(OC)c1 | 5.23
O=C(COC(=O)/C=C/c1ccc(C(F)(F)F)cc1)NCC1CCCO1 (stereo not drawn) | 10.1
N#Cc1ccc(C(=O)Nc2nnc(-c3ccccn3)o2)cc1 | -4.32
CCOC(=O)c1oc2ccccc2c1CN1CCN(C)CC1.Cl | -61.5
Cc1ccc(-n2c(SCC(=O)Nc3ccc4cn[nH]c4c3)nnc2-c2ccco2)cc1 | -62.4
CCOC(=O)N1CCN(C(=O)c2oc3ccc(S(=O)(=O)N4CCCCCC4)cc3c2C)CC1 | -29.8
Cc1cc(=O)oc2cc(OCC(=O)OCC(=O)N3CCc4ccccc43)ccc12 | -11.1
O=C(COC(=O)c1cc2c(s1)CCCCC2)NC1CCS(=O)(=O)C1 (stereo not drawn) | -3.87
COc1cccc(-n2nnnc2SCC(=O)Nc2ccccc2OC)c1 | -4.77
COc1ccc(N=Cc2c(O)n(-c3cccc(C)n3)c(=O)c3ccccc23)cc1 | -32.8
CCOC(=O)C1(Cc2ccccc2C)CCCN(C(=O)c2ccnn2C)C1 (stereo not drawn) | -6.29
CCOc1ccccc1C(C(=O)NC1CCCCC1)N(C(=O)c1csnn1)C1CC1 (stereo not drawn) | -38
COc1ccc(/C=N/NC(=O)c2ccc(N(C)S(=O)(=O)c3ccccc3)cc2)cc1OC | -26.9
CCCC(=O)Nc1cc(OC)c(C(=O)OC)cc1Cl | 24.6
CC(C)(C)c1ccc(S(=O)(=O)C(C)(C)C)cc1 | 11.6
